The values below come from patent US9890126B2 (priority 2012, dated 2018).

Common to all, as to assay: microbe, parasite or virus in culture
Experiment [1] concerns P. falciparum D6. The settings on record: Plasmodium falciparum, D6, 72 h, read-out: SYBR Green D6 IC50.
Experiment [2] deals with P. falciparum W2. The settings on record: Plasmodium falciparum, W2, 72 h, read-out: SYBR Green W2 IC50.
Experiment [3] concerns P. falciparum C235. The settings on record: Plasmodium falciparum, 72 h, read-out: SYBR Green C235 IC50.

Consider `Oc1ccc(-c2cncn2CCc2ccccc2F)cc1` [HGN-0107], for which the figures for the IC50 in experiment [1], in experiment [2] and in experiment [3] were 5.65 µM, 4.09 µM and 7.29 µM, respectively.

Turning to `Oc1ccc(-c2cncn2CCc2cccc(Cl)c2)cc1` [HGN-0108], the IC50 (in general, the concentration that gives 50% inhibition) in experiment [1] came to 11.5 µM; in experiment [2] it was 7.22 µM; in experiment [3], 13.8 µM.

Turning to `Oc1ccc(-c2cncn2Cc2cccc(F)c2)cc1` [HGN-0109], the concentration for half-maximal inhibition (IC50) in experiment [1] is 4.8 µM; in experiment [2] it was 3.16 µM; in experiment [3] it was 5.74 µM.

Regarding `CCOC(=O)c1cnc(NCCc2ccc(F)cc2)[nH]c1=O` [HGN-0111], the IC50 in experiment [1], in experiment [2] and in experiment [3] was more than 40 µM in each case.

Regarding `CCOC(=O)c1cnc(NCc2ccc(F)cc2)[nH]c1=O` [HGN-0113], the figures for the half-maximal inhibitory concentration (IC50) in experiment [1], in experiment [2] and in experiment [3] were 29.3 µM, more than 40 µM and more than 40 µM, respectively.

With `CCOC(=O)c1cnc(NCCc2cccc(F)c2)[nH]c1=O` [HGN-0115], the results for the IC50 in experiment [1], in experiment [2] and in experiment [3] were 17.4 µM, 17.6 µM and 27.6 µM, respectively.

Consider `CCOC(=O)c1cnc(NCc2ccccc2Cl)[nH]c1=O` [HGN-0121], for which the figures for the IC50 in experiment [1], in experiment [2] and in experiment [3] were 34.5 µM, more than 40 µM and more than 40 µM, respectively.

On to `CCOC(=O)c1cnc(NCc2ccc(Cl)cc2)[nH]c1=O` [HGN-0125], for which the IC50 in experiment [1] is more than 40 µM; in experiment [2], 16 µM; in experiment [3], 19.7 µM.

Consider `O=C([O-])c1cnc(NCc2ccc(Cl)cc2)nc1[O-].[Na+].[Na+]` [HGN-0126], for which the IC50 in experiment [1], in experiment [2] and in experiment [3] was more than 40 µM throughout.

Regarding `CCOC(=O)c1cnc(NCc2cc(Cl)ccc2Cl)[nH]c1=O` [HGN-0127], the values for the half-maximal inhibitory concentration (IC50) in experiment [1], in experiment [2] and in experiment [3] were more than 40 µM, 17.7 µM and more than 40 µM, respectively.

Take `CCOC(=O)c1cnc(NCc2ccc(Cl)c(Cl)c2)[nH]c1=O` [HGN-0129]: the half-maximal inhibitory concentration (IC50) is 26.9 µM in experiment [1], 13.2 µM in experiment [2] and 33 µM in experiment [3].

`CCOC(=O)c1cnc(NCc2ccccc2F)[nH]c1=O` [HGN-0133]: the IC50 in experiment [1], in experiment [2] and in experiment [3] was more than 40 µM in each case.
